The chains are these.
B1: CPEB3 Ribozyme (parent)
chain: UAACAGGGGGCCACAGCAGAAGCGUUCACGUCGCAGCCCCUGUCAGAUUCUGGUGAAUCUGCGAAUUCUGCUGUAUAUCUC

Read counts are not given, so values of variants with three or more changes are uncertain.

The variants in the data set derive from B1. In words: self-cleavage, relative activity (ratio to wild type); higher = more cleavage; in vitro, sequencing. The essentials: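 Relative activity compares each variant's cleaved/total read fraction with that of the unmutated ribozyme. To get these fractions, barcoded CPEB3 ribozyme libraries from rounds of error-prone PCR were transcribed with T7 RNA polymerase for 5 hours at 37°C and then given 15 min of DNase I treatment before EDTA was added. The RNAs were reverse transcribed with template switching and sequenced on Illumina, and DNA sequencing linked barcodes to variants. A minimum of 5 reads applied, and three batches were averaged.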
As for C40U U41C A47U U51C G55C, the self-cleavage stood at 0.14.
To C39A U49A A56G belongs 0.17; to U41A U49C U51A A56U C59U U69A U72A, 0.05.
The value for U41A G73U U80C was 0.39.
The value for U41A U51A U72A was 0.25.
As for U41C A47G A64G U66C, the self-cleavage was 0.52.
The value for C38A U54A U78C was 0.16; that for C38U A47G U78C C81G was 0.53.
As to U41A A47U A57U U60G, the self-cleavage was 0.1.
Take C40A A45G U60C: the self-cleavage came out at 0.23.
The value for C39A U41C A47U was 0.15; that for C38U U48A U80C was 0.21; that for U41A U54C A65G was 0.22.
To U41C A56G U76A U80C belongs 0.78; to C39A U43C U60A U74A, 0.19; to U41C A47G U51G U69A U78C, 0.42.
The value for U41A U43C U80G was 0.28; that for U41A U43C A64G was 0.47.
C40A A45U A56U A77G: the self-cleavage amounted to 0.14.
In the case of U41A A47U U76C, the self-cleavage stood at 0.14.
To U41A U66C U76C belongs 0.1; to C40A U41A U54C, 0.22; to C39U G46U A64G U72A A75G, 0.05.
The value for U41A G61A U80C was 0.23; that for C40U U60A G63U was 0.37; that for U41C A45U A47G A56G was 0.24.
The value for U41A C68A A75C was 0.08; that for U41C A45U U51A U72C was 0.47; that for U41A U67C A77G was 0.16.
In the case of U41A U51A A64G A75G, the self-cleavage worked out at 0.09.
The value for U41C A57G C62U U72G was 0.39.
The value for C40U A45G U51C was 0.53.
The value for C38U A45G U74A U76C was 1.11; that for U41C A45G U72C was 1.05.
On to C39U A45G U48A U51G U80A, for which the self-cleavage is 0.09.
To U41A U54C U60C C81A belongs 0.18.
Take U41C A57C G70U: the self-cleavage is 0.18.
The value for C40U U43A U66C U80C was 0.2.
To C38G C40G U41C U49C G73A U78G C81U belongs 0.06; to C40G A45U U69G, 0.12; to U41A U48C A75U, 0.09.
To U41C A57G C79U belongs 1.28; to C39U U41C A47G, 0.75.
In the case of U41A U66A U67C U80C, the self-cleavage came to 0.09.
The value for U41A A64U U76C was 0.14.
The value for C40A U60C U66A U74G was 0.09; that for U41A U43C U60A U69C A77G was 0.19; that for U41A U51A A64G U80C was 0.26.
The value for C40U C44A G55A U66C was 0.04.
On to U41A A56G U67A U78A, for which the self-cleavage was 0.05.
To C39A C40U U54C U67G U69C U80A belongs 0.08; to U41C A45C A56G A57G, 0.19; to U41A G61C G70C, 0.15.
The value for C40G A47U U72C was 0.04.
Turning to C38U G63U U67C A75G, the self-cleavage was found to be 0.09.
With U41A U43C U67C, the self-cleavage was 0.06.
To U41C A56U U60C belongs 0.15; to U41A U72A U74C A77G, 0.14; to U41A A65G U67C, 0.3.
The value for C39A A45U G46C A64G A77G was 0.18; that for U41A U54C U76A was 0.1.
The value for U41A G46U C62U U72C was 0.14; that for U41A A45U A64U U66A U69C U78C was 0.07.
As for C38U C50U U67C, the self-cleavage was determined as 0.12.
For the variant U41C A45G U67A, the self-cleavage was determined as 0.52.
To U41A U49C G73A belongs 0.1.
The value for C40U U51A A57G was 0.49; that for C38G A57G U74C was 0.25; that for U41A U51C A57G was 0.2.
To C39U G63U U67A belongs 0.25; to C40A U43C U60A, 0.12; to U41A U48C U60C C62U, 0.08.
Regarding C40U U48C U54A U67A, the self-cleavage was found to be 0.16.
The value for U41C A56G A57U U67A was 0.15; that for U41A U43C U48A U66C U78C was 0.15.
The value for U41A A56U U66A U80C was 0.16; that for U41A A56G U78C was 0.17.
The value for U41C A45U G70A A77G was 0.32.
For C39A U43C G53A, the self-cleavage came to 0.26.
To U41A A56U U80A belongs 0; to U41A A47G U54A A65G U67C U72C, 0.03.
Take U41A U58A U80C: the self-cleavage stood at 0.18.
As for U41C A45U U51C, the self-cleavage was determined as 0.6.
The value for C40U U41A U54C C68A was 0.16; that for C40U U51C A65G U72C was 0.1; that for C40G G52C U80A was 0.09.
For C40A U48A G52A U69A U72C U78C, the self-cleavage came out at 0.06.
In the case of U41C A45G U48G U51C, the self-cleavage was found to be 0.41.
The value for U41A C68A C81U was 0.15.
For U41A A47G A65G U69C, the self-cleavage came to 0.17.
The value for C39G U51C U66C U72G was 0.12; that for C38U C40U G52A was 0.16.
Turning to U41A U43C U51C U54C C62G U76G, the self-cleavage was 0.23.
To C39U A45G G63A belongs 0.51; to U41A G53A U60A, 0.15; to C37U U60A U66C, 0.11.
To C39A U48C U69G U72C belongs 0.08; to C40A U60C U78A, 0.2.
Regarding C40G U43C A77G, the self-cleavage was determined as 0.2.
To C38U C62U A75U belongs 0.56; to U41A U43A A57G A64G A65G U72C, 0.08.
With U41C A45U U74C, the self-cleavage was determined as 0.72.
The value for C38U U66C U72C was 0.24; that for C40U A45U A64G was 0.42.
The value for U41A U60A U67C was 0.13; that for C38U U41C U49C was 0.29.
To U41A C50G U67A U80C belongs 0.2; to U41A U60C U72A, 0.16; to C40U G52C A64C, 0.19.
For C39A U41A A75G, the self-cleavage was 0.07.
To C38U A56G C62U A64G U78A C81U belongs 0.05; to C40A A45C A57U A65G U67C, 0.08; to C40A A45G A65U, 0.43.
To U41C A57G U58A belongs 0.37; to C40A U60C G70A U76A, 0.08.
To C39A U51G A57G G70A U72A U80C belongs 0.05; to C37U U72G U80A, 0.4.
Take U41A A64G U72C U80C: the self-cleavage worked out at 0.09.
The value for U41C A47G U54G was 0.57.
To C38G U69C U72C belongs 0.11.
To C38A G42A U49A U67C U74C belongs 0.09; to C40U U43A C44G U58C, 0.26; to U41A U51A U80C, 0.16.
For the variant U41C A57G C62A, the self-cleavage was 0.14.
To U41A U51A U60C U80C belongs 0.35.
To U41A U43A U54A U69C U80C belongs 0.19; to C38A U48C A57G U60A A65G, 0.13; to C39A U60C G73C, 0.53.
Consider U41A U58A U67A, for which the self-cleavage stood at 0.18.
With C38A U66G U76C A77U, the self-cleavage stood at 0.06.
To C38U U60A U66A A75U belongs 0.09.
The value for U41A A56U U60G U69C G70A was 0.06.
Regarding U41A G52A G73A, the self-cleavage turned out to be 0.4.
Take C40A U49C A75U: the self-cleavage is 0.17.
The value for U41C A56G A64G U74A was 1.04; that for C39U A56G U78A was 0.33; that for U41A G53U U72C was 0.12.
To C38U A47G U66C U80G belongs 0.16.
To C39U U48C U72A belongs 0.27.
As for C40A U41C U49C A56G, the self-cleavage was 0.22.
The value for C39G U43C U58A U80C was 0.17; that for U41A G55U A64G was 0.18.
To C40A U41G U69A U80A belongs 0.18.
To C40G A56G A65G U80G belongs 0.36.
As to C37U U60G C81A, the self-cleavage came out at 0.12.
To U41A A47G A77G belongs 0.14; to U41A U54A A56G U60C, 0.1.
The value for C39G U41A C68U U76A was 0.06; that for C40A U69A U72A was 0.16.
As for U41A A57U U74C, the self-cleavage is 0.1.
On to U41C A45U U49C U60A A64G, for which the self-cleavage turned out to be 0.14.
The value for C37U U51A A77G was 0.35; that for C40U U41C U69C was 0.49.
The value for C39U A45U G53A U60C U72C was 0.31.
For the variant U41A U48C U60C, the self-cleavage came out at 0.4.
As to C38U A45C U48G U51A, the self-cleavage was 0.15.
As for U41A U43A C44U U54A, the self-cleavage stood at 0.21.
Consider C37U U48G U49C A64U G73U, for which the self-cleavage is 0.09.
To C38G U54C C62A G73A belongs 0.06; to U41A U69C U74C, 0.18; to C39A C50U A57G A64U U69A, 0.07.
As to C40U U51A G63A U76C, the self-cleavage was determined as 0.38.
To C38A G42A U78G U80A belongs 0.3.
The value for C39U A45G U51A was 0.37; that for C40A A45U A56U was 0.16; that for U41A A45G A57G U78C was 0.22.
The value for C40U U41A U48C G55U U80C was 0.2.

These data come from the RNAGym collection of RNA variant scans (doi:10.1093/nar/gkz1192).
